# From the supplement of paper PMC8728848
# The list shows a part of the results.
# B1: Gal 4 (Mus musculus), P56470 (protein)
# chain: MAYVPAPGYQPTYNPTLPYYQPIPGGLNVGMSVYIQGVASEHMKRFFVNFVVGQDPGSDVAFHFNPRFDGWDKVVFNTLQGGKWGSEERKRSMPFKKGAAFELVFIVLAEHYKVVVNGNPFYEYGHRLPLQMVTHLQVDGDLQLQSINFIGGQPLRPQGPPMMPPYPGPGHCHQQLNSLPTMEGPPTFNPPVPYFGRLQGGLTARRTIIIKGYVPPTGKSFAINFKVGSSGDIALHINPRMGNGTVVRNSLLNGSWGSEEKKITHNPFGPGQFFDLSIRCGLDRFKVYANGQHLFDFAHRLSAFQRVDTLEIQGDVTLSYVQI
# Experiments:
# Assay in all cases: glycan array binding signal (z-score within array); higher = stronger binding
# Details in all cases: glycan notation: IUPAC condensed, linker removed
# [1] = molecular target: GlcNAc(a1-4)Gal(b1-4)GlcNAc(b1-3)Gal(b1-4)Glc
# How it was run: (§1)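 The Consortium for Functional Glycomics database supplied 3228 glycan arrays, of which those lacking an available protein sequence were dropped. The binding signal, a within-array Z-score, was averaged across arrays of the same protein sequence and across linkers. Negative scores can be read as non-binding.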
# [2] = molecular target: GlcNAc(a1-4)Gal(b1-4)GlcNAc(b1-3)Gal(b1-4)GlcNAc
# How it was run: as §1
# [3] = molecular target: GlcNAc(a1-4)Gal(b1-4)GlcNAc(b1-3)Gal(b1-4)GlcNAc(b1-3)Gal(b1-4)GlcNAc
# How it was run: as §1
# [4] = molecular target: GlcNAc(a1-4)Gal(b1-4)GlcNAc(b1-3)Gal(b1-4)[Fuc(a1-3)]GlcNAc(b1-3)Gal(b1-4)[Fuc(a1-3)]GlcNAc
# How it was run: as §1
# [5] = molecular target: GlcNAc(a1-6)Gal(b1-4)GlcNAc
# How it was run: as §1
# [6] = molecular target: GlcNAc(b1-2)Gal(b1-3)GalNAc
# How it was run: as §1
# [7] = molecular target: GlcNAc(b1-2)Man(a1-3)[GlcNAc(b1-2)Man(a1-6)]Man(b1-4)GlcNAc(b1-4)GlcNAc
# How it was run: as §1
# [8] = molecular target: GlcNAc(b1-2)Man(a1-3)[GlcNAc(b1-2)Man(a1-6)]Man(b1-4)GlcNAc(b1-4)[Fuc(a1-6)]GlcNAc
# How it was run: as §1
# [9] = molecular target: GlcNAc(b1-2)Man(a1-3)[GlcNAc(b1-4)][GlcNAc(b1-2)Man(a1-6)]Man(b1-4)GlcNAc(b1-4)GlcNAc
# How it was run: as §1
# [10] = molecular target: GlcNAc(b1-2)Man(a1-3)[GlcNAc(b1-4)][GlcNAc(b1-2)Man(a1-6)]Man(b1-4)GlcNAc(b1-4)[Fuc(a1-6)]GlcNAc
# How it was run: as §1
# [11] = molecular target: GlcNAc(b1-2)[GlcNAc(b1-4)]Man(a1-3)[GlcNAc(b1-2)Man(a1-6)]Man(b1-4)GlcNAc(b1-4)GlcNAc
# How it was run: as §1
# [12] = molecular target: GlcNAc(b1-2)[GlcNAc(b1-4)]Man(a1-3)[GlcNAc(b1-4)][GlcNAc(b1-2)Man(a1-6)]Man(b1-4)GlcNAc(b1-4)GlcNAc
# How it was run: as §1
# [13] = molecular target: GlcNAc(b1-2)[GlcNAc(b1-4)]Man(a1-3)[GlcNAc(b1-4)][GlcNAc(b1-2)[GlcNAc(b1-6)]Man(a1-6)]Man(b1-4)GlcNAc(b1-4)GlcNAc
# How it was run: as §1
# [14] = molecular target: GlcNAc(b1-2)[GlcNAc(b1-4)]Man(a1-3)[GlcNAc(b1-4)][GlcNAc(b1-2)[GlcNAc(b1-6)]Man(a1-6)]Man(b1-4)GlcNAc(b1-4)[Fuc(a1-6)]GlcNAc
# How it was run: as §1
# [15] = molecular target: GlcNAc(b1-2)[GlcNAc(b1-6)]Man(a1-6)[GlcNAc(b1-2)Man(a1-3)]Man(b1-4)GlcNAc(b1-4)GlcNAc
# How it was run: as §1
# [16] = molecular target: GlcNAc(b1-2)[GlcNAc(b1-6)]Man(a1-6)[GlcNAc(b1-2)Man(a1-3)]Man(b1-4)GlcNAc(b1-4)[Fuc(a1-6)]GlcNAc
# How it was run: as §1
# [17] = molecular target: GlcNAc(b1-2)[GlcNAc(b1-6)]Man(a1-6)[GlcNAc(b1-2)Man(a1-3)][GlcNAc(b1-4)]Man(b1-4)GlcNAc(b1-4)GlcNAc
# How it was run: as §1
# [18] = molecular target: GlcNAc(b1-2)[GlcNAc(b1-6)]Man(a1-6)[GlcNAc(b1-4)][GlcNAc(b1-2)Man(a1-3)]Man(b1-4)GlcNAc(b1-4)GlcNAc
# How it was run: as §1
# [19] = molecular target: GlcNAc(b1-3)Fuc
# How it was run: as §1
# [20] = molecular target: GlcNAc(b1-3)Gal
# How it was run: as §1
# [21] = molecular target: GlcNAc(b1-3)Gal(b1-3)GalNAc
# How it was run: as §1
# [22] = molecular target: GlcNAc(b1-3)Gal(b1-4)Glc
# How it was run: as §1
# [23] = molecular target: GlcNAc(b1-3)Gal(b1-4)GlcNAc
# How it was run: as §1
# [24] = molecular target: GlcNAc(b1-3)Gal(b1-4)GlcNAc(b1-2)Man(a1-3)[GlcNAc(b1-3)Gal(b1-4)GlcNAc(b1-2)Man(a1-6)]Man(b1-4)GlcNAc(b1-4)GlcNAc
# How it was run: as §1
# [25] = molecular target: GlcNAc(b1-3)Gal(b1-4)GlcNAc(b1-2)Man(a1-3)[GlcNAc(b1-3)Gal(b1-4)GlcNAc(b1-2)Man(a1-6)]Man(b1-4)GlcNAc(b1-4)[Fuc(a1-6)]GlcNAc
# How it was run: as §1
# [26] = molecular target: GlcNAc(b1-3)Gal(b1-4)GlcNAc(b1-2)[GlcNAc(b1-3)Gal(b1-4)GlcNAc(b1-6)]Man(a1-6)[GlcNAc(b1-3)Gal(b1-4)GlcNAc(b1-2)Man(a1-3)]Man(b1-4)GlcNAc(b1-4)GlcNAc
# How it was run: as §1
# [27] = molecular target: GlcNAc(b1-3)Gal(b1-4)GlcNAc(b1-3)Gal(b1-4)GlcNAc
# How it was run: as §1
# [28] = molecular target: GlcNAc(b1-3)Gal(b1-4)GlcNAc(b1-3)Gal(b1-4)GlcNAc(b1-2)Man(a1-3)[GlcNAc(b1-3)Gal(b1-4)GlcNAc(b1-3)Gal(b1-4)GlcNAc(b1-2)Man(a1-6)]Man(b1-4)GlcNAc(b1-4)GlcNAc
# How it was run: as §1
# [29] = molecular target: GlcNAc(b1-3)Gal(b1-4)GlcNAc(b1-3)Gal(b1-4)GlcNAc(b1-2)Man(a1-3)[GlcNAc(b1-3)Gal(b1-4)GlcNAc(b1-3)Gal(b1-4)GlcNAc(b1-2)Man(a1-6)]Man(b1-4)GlcNAc(b1-4)[Fuc(a1-6)]GlcNAc
# How it was run: as §1
# [30] = molecular target: GlcNAc(b1-3)Gal(b1-4)GlcNAc(b1-3)Gal(b1-4)GlcNAc(b1-2)[GlcNAc(b1-3)Gal(b1-4)GlcNAc(b1-3)Gal(b1-4)GlcNAc(b1-6)]Man(a1-6)[GlcNAc(b1-3)Gal(b1-4)GlcNAc(b1-3)Gal(b1-4)GlcNAc(b1-2)Man(a1-3)]Man(b1-4)GlcNAc(b1-4)[Fuc(a1-6)]GlcNAc
# How it was run: as §1
# [31] = molecular target: GlcNAc(b1-3)Gal(b1-4)GlcNAc(b1-3)Gal(b1-4)GlcNAc(b1-3)Gal(b1-4)GlcNAc(b1-2)Man(a1-3)[GlcNAc(b1-3)Gal(b1-4)GlcNAc(b1-3)Gal(b1-4)GlcNAc(b1-3)Gal(b1-4)GlcNAc(b1-2)Man(a1-6)]Man(b1-4)GlcNAc(b1-4)GlcNAc
# How it was run: as §1
# [32] = molecular target: GlcNAc(b1-3)Gal(b1-4)GlcNAc(b1-3)Gal(b1-4)GlcNAc(b1-3)Gal(b1-4)GlcNAc(b1-2)Man(a1-3)[GlcNAc(b1-3)Gal(b1-4)GlcNAc(b1-3)Gal(b1-4)GlcNAc(b1-3)Gal(b1-4)GlcNAc(b1-2)Man(a1-6)]Man(b1-4)GlcNAc(b1-4)[Fuc(a1-6)]GlcNAc
# How it was run: as §1
# [33] = molecular target: GlcNAc(b1-3)Gal(b1-4)GlcNAc(b1-3)Gal(b1-4)GlcNAc(b1-3)Gal(b1-4)GlcNAc(b1-2)[GlcNAc(b1-3)Gal(b1-4)GlcNAc(b1-3)Gal(b1-4)GlcNAc(b1-3)Gal(b1-4)GlcNAc(b1-6)]Man(a1-6)[GlcNAc(b1-3)Gal(b1-4)GlcNAc(b1-3)Gal(b1-4)GlcNAc(b1-3)Gal(b1-4)GlcNAc(b1-2)Man(a1-3)]Man(b1-4)GlcNAc(b1-4)[Fuc(a1-6)]GlcNAc
# How it was run: as §1
# [34] = molecular target: GlcNAc(b1-3)Gal(b1-4)GlcNAc(b1-3)Gal(b1-4)GlcNAc(b1-3)Gal(b1-4)GlcNAc(b1-3)Gal(b1-4)GlcNAc(b1-2)Man(a1-3)[GlcNAc(b1-3)Gal(b1-4)GlcNAc(b1-3)Gal(b1-4)GlcNAc(b1-3)Gal(b1-4)GlcNAc(b1-3)Gal(b1-4)GlcNAc(b1-2)Man(a1-6)]Man(b1-4)GlcNAc(b1-4)GlcNAc
# How it was run: as §1
# [35] = molecular target: GlcNAc(b1-3)Gal(b1-4)GlcNAc(b1-3)Gal(b1-4)GlcNAc(b1-3)Gal(b1-4)GlcNAc(b1-3)Gal(b1-4)GlcNAc(b1-2)Man(a1-3)[GlcNAc(b1-3)Gal(b1-4)GlcNAc(b1-3)Gal(b1-4)GlcNAc(b1-3)Gal(b1-4)GlcNAc(b1-3)Gal(b1-4)GlcNAc(b1-2)Man(a1-6)]Man(b1-4)GlcNAc(b1-4)[Fuc(a1-6)]GlcNAc
# How it was run: as §1
# [36] = molecular target: GlcNAc(b1-3)Gal(b1-4)GlcNAc(b1-3)Gal(b1-4)GlcNAc(b1-3)Gal(b1-4)GlcNAc(b1-3)Gal(b1-4)GlcNAc(b1-2)[GlcNAc(b1-3)Gal(b1-4)GlcNAc(b1-3)Gal(b1-4)GlcNAc(b1-3)Gal(b1-4)GlcNAc(b1-3)Gal(b1-4)GlcNAc(b1-6)]Man(a1-6)[GlcNAc(b1-3)Gal(b1-4)GlcNAc(b1-3)Gal(b1-4)GlcNAc(b1-3)Gal(b1-4)GlcNAc(b1-3)Gal(b1-4)GlcNAc(b1-2)Man(a1-3)]Man(b1-4)GlcNAc(b1-4)[Fuc(a1-6)]GlcNAc
# How it was run: as §1
# [37] = molecular target: GlcNAc(b1-3)Gal(b1-4)GlcNAc(b1-3)Gal(b1-4)GlcNAc(b1-3)GalNAc
# How it was run: as §1
# [38] = molecular target: GlcNAc(b1-3)Gal(b1-4)GlcNAc(b1-3)GalNAc
# How it was run: as §1
binder,measurement,setting,value
B1,glycan array binding signal (z-score),[1],0.38
same,glycan array binding signal (z-score),[2],-0.209
same,glycan array binding signal (z-score),[3],-0.114
same,glycan array binding signal (z-score),[4],-0.176
same,glycan array binding signal (z-score),[5],-0.239
same,glycan array binding signal (z-score),[6],-0.226
same,glycan array binding signal (z-score),[7],-0.24
same,glycan array binding signal (z-score),[8],-0.19
same,glycan array binding signal (z-score),[9],-0.225
same,glycan array binding signal (z-score),[10],-0.278
same,glycan array binding signal (z-score),[11],-0.244
same,glycan array binding signal (z-score),[12],-0.234
same,glycan array binding signal (z-score),[13],-0.23
same,glycan array binding signal (z-score),[14],-0.264
same,glycan array binding signal (z-score),[15],-0.221
same,glycan array binding signal (z-score),[16],-0.25
same,glycan array binding signal (z-score),[17],-0.203
same,glycan array binding signal (z-score),[18],-0.265
same,glycan array binding signal (z-score),[19],-0.261
same,glycan array binding signal (z-score),[20],-0.236
same,glycan array binding signal (z-score),[21],-0.227
same,glycan array binding signal (z-score),[22],0.019
same,glycan array binding signal (z-score),[23],-0.204
same,glycan array binding signal (z-score),[24],-0.254
same,glycan array binding signal (z-score),[25],-0.253
same,glycan array binding signal (z-score),[26],-0.169
same,glycan array binding signal (z-score),[27],-0.174
same,glycan array binding signal (z-score),[28],-0.18
same,glycan array binding signal (z-score),[29],-0.19
same,glycan array binding signal (z-score),[30],-0.279
same,glycan array binding signal (z-score),[31],-0.25
same,glycan array binding signal (z-score),[32],-0.173
same,glycan array binding signal (z-score),[33],-0.244
same,glycan array binding signal (z-score),[34],-0.27
same,glycan array binding signal (z-score),[35],-0.287
same,glycan array binding signal (z-score),[36],-0.245
same,glycan array binding signal (z-score),[37],-0.3
same,glycan array binding signal (z-score),[38],-0.205
